# Data taken from PubChem BioAssay AID504706 (National Center for Advancing Translational Sciences (NCATS), 2011).
# In all, about 320,000 compounds went through this assay and about 200 (0.062%) were called active. The shares of active, inactive and inconclusive entries below differ from those in the screen. The call rests on the fitted dose curve; in most records, active means well fitted activation curve with a large enough effect; inconclusive means small, poorly fitted or top-dose-only effect; inactive means no such curve, though single readings can be large or run the other way. No potency is given beside an inconclusive call; the fits are too rough.
# Experiment: qHTS assay for re-activators of p53 using a Luc reporter; further: nearly all actives have a fitted effect of over 45% in size
# Details: H1299 p53-A138V BP100-luciferase reporter, luminescence, 24 h; series mostly up to 92.2 µM
# How it was run: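 H1299 (p53-null), stable ts p53-A138V + BP100-Luc; 1000 cells/well, Opti-MEM/10% FBS; cpd 4 pt, 1:5; 24 h, 37 deg C, 5% CO2; detection reagent 10 min RT; luminescence.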
# Potency means the concentration at half of the fitted maximal effect; tags describe the fitted curve by direction and shape.
row,SMILES,Potency
1,Cc1ccc(S(=O)(=O)NC(C(=O)N2CCOCCOCCOCC2)c2ccccc2)cc1 (configuration not stated),inactive
2,Cc1ccc(NC(=O)C2C(=O)N(CCO)C3(C)CC2c2ccccc2O3)cc1 (configuration not stated),"inconclusive [activator, partial curve, poor fit]"
3,O=C(NCCc1ccc2c(c1)OCCO2)c1ccccc1F,"inconclusive [activator, partial curve, poor fit]"
4,C#CCn1c(=NC(=O)c2ccc(S(=O)(=O)N3CCc4ccccc4C3)cc2)sc2cc(S(N)(=O)=O)ccc21,inactive
5,CC1CCCCC1NC(=O)c1cc2c(=O)n3ccccc3nc2n1C (configuration not stated),inactive
6,O=C(NCCc1ccc(F)cc1)c1cccc(NC(=O)c2ccccc2)c1,"inconclusive [activator, single point]"
7,COc1ccccc1N1CCN(c2ncnc3c2oc2ccccc23)CC1,"inconclusive [activator, partial curve, poor fit]"
8,Cc1ccc(C2CC(c3cccc(NS(C)(=O)=O)c3)=NN2S(C)(=O)=O)cc1 (configuration not stated),"inconclusive [activator, partial curve, poor fit]"
9,CCc1ccc(NC(=O)CSc2nnnn2C)cc1,"inconclusive [activator, partial curve, poor fit]"
10,CN(c1cccc(Cl)c1)S(=O)(=O)c1cccc(C(=O)Nc2nc3ccccc3[nH]2)c1,"inconclusive [activator, full curve, poor fit]"
11,CCOc1ncccc1C(=O)OCC(=O)N1CCN(S(=O)(=O)c2ccc(Cl)cc2)CC1,inactive
12,COc1cccc(-c2nc(Oc3cc(C)cc(C)c3)c3ccccc3n2)c1O,"inconclusive [activator, full curve, poor fit]"
13,COc1ccc2c(c1)-c1nc(/N=C/c3c(O)ccc4ccccc34)sc1CC2,"inconclusive [activator, partial curve, poor fit]"
14,COc1ccc(CNC(=O)C(=O)NCC2OCCN2S(=O)(=O)c2ccc(F)cc2)cc1 (configuration not stated),"inconclusive [activator, single point]"
15,O=C(CCCOc1ccccc1)Nc1ccncc1,inactive
16,CCCNC(=O)c1cc(-c2ccc3c(c2)OCO3)on1,"inconclusive [activator, full curve, poor fit]"
17,CC1CCN(CCCNC(=O)Cn2ncc3c([nH]c4ccccc43)c2=O)CC1,inactive
18,CCOc1ccc(NS(=O)(=O)c2cnc(Cl)c(Cl)c2)cc1,inactive
19,Cc1ccc(S(=O)(=O)/N=C(/NNC(=O)c2cccc(Cl)c2)c2ccccc2)cc1,"inconclusive [activator, partial curve, poor fit]"
20,Cc1cc(C(=O)CN2C(=O)c3cccc(N)c3C2=O)c(C)n1Cc1cccs1,"inconclusive [activator, full curve, poor fit]"
21,Nn1c(CSc2ccccn2)nc2ccccc2c1=O,"inconclusive [activator, partial curve, poor fit]"

row,SMILES,Potency
1,O=c1c2c(nc3cc(-c4ccc(F)cc4)[nH]n13)CCC2,"inconclusive [activator, partial curve, poor fit]"
2,COc1ccccc1OCc1nc2ccccc2s1,"inconclusive [activator, full curve, poor fit]"
3,Nn1c(COc2cccc(Cl)c2)nc2ccccc2c1=O,"inconclusive [activator, partial curve, poor fit]"
4,COc1ccc2nc(-n3c(O)c(C4=c5ccccc5=NC4=O)[nH]c3=S)sc2c1,"inconclusive [activator, partial curve, poor fit]"
5,Cc1nc2ccc(-c3nc4ccc(N)cc4[nH]3)cc2[nH]1,inactive
6,c1csc(C2=Nn3c(nnc3-c3ccncc3)SC2)c1,inactive
7,Cc1ccc(/C=C/C(=O)Nc2nccs2)o1,"inconclusive [activator, partial curve, poor fit]"
8,O=C(c1ccccc1)c1ccc(Cn2cc(-c3ccccc3)nn2)cc1,inactive
9,CCOc1ccc(-c2n[nH]c(C(=O)NN)c2C)cc1,"inconclusive [activator, full curve, poor fit]"
10,COc1ccc(N2CCN(c3ccc(N4C(=O)COCC4=O)cc3[N+](=O)[O-])CC2)cc1,"inconclusive [activator, partial curve, poor fit]"
11,CC(/C=N/Nc1nc2ccccc2[nH]1)=C\c1ccccc1,"inconclusive [activator, full curve, poor fit]"
12,CCN(CC)CCCn1c2c(c(SCC(=O)Nc3ccc(OC(F)(F)F)cc3)nc1=O)CCC2,"inconclusive [activator, partial curve, poor fit]"
13,COc1ccc(OC)c(/C=C2\S/C(=N/NC(=O)c3ccc4ccccc4c3)NC2=O)c1,inactive
14,CCc1nnc(NC(=O)CC(=O)Nc2ccccc2C(=O)O)s1,"inconclusive [activator, single point]"
15,O=C(O)c1ccccc1COc1ccccc1Cl,"inconclusive [activator, partial curve, poor fit]"
16,S=c1[nH]nc(-c2cc(-c3ccccc3)n[nH]2)n1/N=C/C=C/c1ccccc1,inactive
17,CCOC(=O)c1csc(Nc2nc3ccc(F)cc3s2)n1,"inconclusive [activator, partial curve, poor fit]"
18,COCCn1c(C)cc(C(=O)CSc2nc3ccccc3c(=O)n2Cc2ccco2)c1C,"inconclusive [activator, partial curve, poor fit]"
19,Cc1ccc(S(=O)(=O)NCC(=O)OCC(=O)c2cc(C)n(-c3ccccc3)c2C)cc1,inactive
20,O=C(O)c1cc(N2C(=O)C3CC=CCC3C2=O)ccc1NCc1cccnc1 (configuration not stated),inactive
21,CCCCCC(=O)N/N=C/c1ccc(N(C)C)cc1,"inconclusive [activator, partial curve, poor fit]"
